Source: the supplement of paper PMC11417369
± gives the standard deviation of the averaged measurements. Some of the results follow.

Each sequence was assayed on PfAP2-G AP2 domain (GST-tagged) (assay: gcPBM binding intensity (ln(normalized median fluorescence intensity)); higher = stronger DNA binding).
How it was run: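 The binding buffer was 1× PBS containing 1% milk, 0.2 mg/ml BSA, 0.5% salmon testes DNA and 0.03% Triton X-100. In it, GST-tagged P. falciparum DNA-binding domains expressed in E. coli were applied for 1 h to an Agilent 4 × 180k array of primer-extended double-stranded 36-bp intergenic genomic probes plus negative controls. Binding intensity, read with Alexa488 anti-GST antibody and a 488 nm scan, is the highest Masliner-normalised natural-log median intensity across replicate spots of either probe orientation.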

Row | Sequence | gcPBM binding intensity (ln)
1 | AAAATATATACAAGCAAACACACGTAATATATATTA [CACACA_site2152] | 9.945 ± 0.021
2 | GCATAAAATATGATCGCACACTGTTTAAAATACTTA [CACACA_site828] | 10.2 ± 0.21
3 | ATATTACTAATTAATGGTACACGTTATAATAAACTA [XGTACX_site7051] | 11.1 ± 0.68
4 | AGGTAGTTCTGTATCACACACATATAAATATAAATA [CACACA_site7110] | 10.2 ± 0.27
5 | ATAACAAATATGATAGCATGCTACATATTACAACTT [TGCATGCA_site524] | 9.71 ± 0.16
6 | AGAAGAAAAGAAATATGTACATAAACGTCTGAACTA [XGTACX_site1699] | 11.2 ± 0.68
7 | GTTCCATATATTACATGTACATATTTTTACATTTAA [XGTACX_site660] | 11.2 ± 0.72
8 | TGATTAATAGCAGGTAGTACTATAATAATATAAATA [XGTACX_site2776] | 11.4 ± 0.81
9 | TGACATAAATTTAATACACACACAAAGAAAAAAAAA [CACACA_site9354] | 10.4 ± 0.23
10 | TTTAAAAAAAAAAAAAAAAATTCTACATGTAATTTA [CACACA_negctrl_site1205] | 9.38 ± 0.028
11 | GTGTGTGTATATATTTGTACATATATTTAAACATAT [XGTACX_site1074] | 11.4 ± 0.71
12 | TATACATAAATTATATGTACTGAAAATACATAATTA [XGTACX_site3626] | 11 ± 0.76
13 | ATTCCCTTAAGAAACTGTACAAAACTTTCTTCGATT [XGTACX_site775] | 10.6 ± 0.33
14 | CACAGATATATACATACACACATATATACACATATA [CACACA_site6323] | 10.1 ± 0.11
15 | ATCGAGAAAAATAAAATAATACAATTTCTTTAAATA [XGTACX_negctrl_site162] | 9.56
16 | GGTAGGTGGATATATACACACATATATTATAGATAT [CACACA_site7021] | 10.3 ± 0.23
17 | AAAAAAAAAAAAGAAACACACACATTTGTATATAAT [CACACA_site8648] | 9.94
18 | GAAACATAAAAATATATTGAAATAGTATCATGGGTA [CACACA_negctrl_site352] | 10.2 ± 0.2
19 | TATAGTTATATTAGAAGTACTTCATTTTAACATATT [XGTACX_site7101] | 11.5 ± 1.2
20 | TTTTTTTTGTATTAATGTACATATAACTTTTTTTTT [XGTACX_site7903] | 11.1 ± 0.72
21 | TTAATTACATGTTATTGTACGTATTTTCTATCTATC [XGTACX_site844] | 11.6 ± 1.2
22 | TTTTTTTTTTCTTAGGTGCAAAAAATAAGTATATAT [GTGCAC_site9394] | 10.4 ± 0.45
23 | AAAAAAAAAAGAACCCGTACATAAATAATATATATA [XGTACX_site164] | 11.1 ± 0.86
24 | AAAAAGAAGAATATATGTACACAAAATTTATGAGTT [XGTACX_site8609] | 11.4 ± 0.81
